Measured values published in the supplement of paper PMC4967469.
By IC50 is meant the dose at which the fit gives 50% viability; a fit beyond the top or the lowest dose is shown as a bound at that dose. AUC, from the same fit, is the share of area under the viability curve across the 256-fold dose range; it is 1 without any effect and falls as sensitivity rises. For some assays here: An inferred top dose is not printed in the source and was worked back from the curve model.

Tests used:
Assay in all cases: Viability of human cancer cell lines after 72 h of drug (GDSC screen)
[1] = compound: CN(C)C/C=C/C(=O)Nc1ccc(C(=O)Nc2cccc(Nc3nccc(-c4cccnc4)n3)c2)cc1 [ZG-10]; settings: top dose 10 µM; top dose inferred
Method: (§1)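 Human cancer cell lines in 384-well plates, medium with 10% serum, drug for 72 h over a 256-fold dose range (nine 2-fold or five 4-fold steps up to the top dose). Adherent lines were fixed and stained with the nucleic acid dye Syto60, suspension lines read with resazurin; signal relative to control wells, capped at 0 and 100%. One two-parameter sigmoid per drug and line, fitted in a mixed model over all curves with the slope shared within a line.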

[2] = compound: CO[C@H]1C[C@@H]2CC[C@@H](C)[C@@](O)(O2)C(=O)C(=O)N2CCCC[C@H]2C(=O)O[C@H]([C@H](C)C[C@@H]2CC[C@@H](O)[C@H](OC)C2)CC(=O)[C@H](C)/C=C(\C)[C@@H](O)[C@@H](OC)C(=O)[C@H](C)C[C@H](C)/C=C/C=C/C=C/1C [Rapamycin]; settings: top dose 0.1 µM; top dose inferred
Method: as §1

[3] = compound: CCC(=O)N1CCN(c2ccc(-n3c(=O)ccc4cnc5ccc(-c6cnc7ccccc7c6)cc5c43)cc2C(F)(F)F)CC1 [JW-7-52-1]; settings: top dose 1.2 µM; top dose inferred
Method: as §1

[4] = compound: Oc1ccc2ccccc2c1SSc1c(O)ccc2ccccc12 [IPA-3]; settings: top dose 32 µM; top dose inferred
Method: as §1

[5] = compound: Cn1nnc2c(C(N)=O)ncn2c1=O [Temozolomide]; settings: top dose 30 µM
Method: as §1

[6] = compound: CN1CCc2c(c3ccccc3n2Cc2ccc(C(=O)NO)cc2)C1 [Tubastatin A]; settings: top dose 20 µM
Method: as §1

[7] = compound: O=C(NOCC1CC1)c1ccc(F)c(F)c1Nc1ccc(I)cc1Cl [CI-1040]; settings: top dose 10 µM; top dose inferred
Method: as §1

[8] = compound: CCCC[C@@H](C=O)NC(=O)[C@H](CC(C)C)NC(=O)[C@H](CC(C)C)NC(=O)OCc1ccccc1 [Z-LLNle-CHO]; settings: top dose 2.56 µM; top dose inferred
Method: as §1

[9] = compound: COc1cc2c(Oc3ccc(NC(=O)C4(C(=O)Nc5ccc(F)cc5)CC4)cc3F)ccnc2cc1OCCCN1CCOCC1 [XL-880]; settings: top dose 5.12 µM; top dose inferred
Method: as §1

| Cell Line | AUC [1] | IC50 [1] [µM] | AUC [2] | IC50 [2] [µM] | AUC [3] | IC50 [3] [µM] | AUC [4] | IC50 [4] [µM] | AUC [5] | IC50 [5] [µM] | AUC [6] | IC50 [6] [µM] | AUC [7] | IC50 [7] [µM] | AUC [8] | IC50 [8] [µM] | AUC [9] | IC50 [9] [µM] |
| --- | --- | --- | --- | --- | --- | --- | --- | --- | --- | --- | --- | --- | --- | --- | --- | --- | --- | --- |
| CAS-1 (glioma, adherent) | 0.812 | 7.97 | 0.949 | > 0.1 | 0.923 | > 1.2 | 0.981 | > 32 | 0.978 | > 30 | 0.97 | > 20 | 0.931 | > 10 | 0.871 | > 2.56 | 0.649 | 0.966 |
| L-428 (Hodgkin lymphoma, suspension) | 0.887 | 8.85 | 0.851 | 0.063 | 0.565 | 0.11 | 0.863 | 22.3 | 0.992 | > 30 | 0.989 | > 20 | 0.973 | > 10 | 0.853 | 1.63 | 0.871 | 3.85 |
| RPMI-8866 (chronic myeloid leukaemia, suspension) | 0.584 | 1.05 | 0.988 | > 0.1 | 0.968 | > 1.2 | 0.953 | > 32 | 0.923 | > 30 | 0.841 | 12.5 | 0.566 | 0.936 | 0.792 | 1.07 | 0.707 | 1.17 |
| NCI-H720 (lung carcinoid, suspension) | 0.876 | 8.47 | 0.666 | 0.0173 | 0.803 | 0.538 | 0.979 | > 32 | 0.991 | > 30 | 0.978 | > 20 | 0.977 | > 10 | 0.976 | > 2.56 | 0.8 | 2.24 |
| NB10 (neuroblastoma, adherent) | 0.855 | 7.64 | 0.966 | > 0.1 | 0.893 | > 1.2 | 0.816 | 17.1 | 0.966 | > 30 | 0.988 | > 20 | 0.764 | 3.55 | 0.963 | > 2.56 | 0.518 | 0.357 |
| NCI-H1648 (lung adenocarcinoma, adherent) | 0.776 | 4.23 | 0.85 | 0.0829 | 0.406 | 0.0408 | 0.979 | > 32 | 0.984 | > 30 | 0.945 | > 20 | 0.902 | > 10 | 0.863 | 2.44 | 0.712 | 1.33 |
| KELLY (neuroblastoma, adherent) | 0.799 | 4.29 | 0.948 | > 0.1 | 0.754 | 0.372 | 0.873 | 26 | 0.988 | > 30 | 0.82 | 10.2 | 0.896 | > 10 | 0.767 | 0.871 | 0.478 | 0.281 |
| EC-GI-10 (oesophagus, adherent) | 0.668 | 1.82 | 0.989 | > 0.1 | 0.974 | > 1.2 | 0.979 | > 32 | 0.936 | > 30 | 0.989 | > 20 | 0.894 | > 10 | 0.957 | > 2.56 | 0.81 | 2.66 |
| TE-9 (oesophagus, adherent) | 0.787 | 4.52 | 0.978 | > 0.1 | 0.704 |  | 0.817 | 18.8 | 0.979 | > 30 | 0.983 | > 20 | 0.953 | > 10 | 0.795 | 1.24 | 0.875 | > 5.12 |
| HCC2218 (breast, suspension) | 0.743 | 3.8 | 0.957 | > 0.1 | 0.677 | 0.268 | 0.952 | > 32 | 0.982 | > 30 | 0.922 | > 20 | 0.977 | > 10 | 0.867 | > 2.56 | 0.862 | > 5.12 |
| SBC-1 (small cell lung carcinoma, suspension) | 0.56 | 0.908 | 0.781 | 0.0399 | 0.585 | 0.127 | 0.988 | > 32 | 0.983 | > 30 | 0.781 | 8 | 0.988 | > 10 | 0.937 | > 2.56 | 0.938 | > 5.12 |
| NCI-H524 (small cell lung carcinoma, suspension) | 0.646 | 1.51 | 0.92 | > 0.1 | 0.777 | 0.431 | 0.987 | > 32 | 0.979 | > 30 | 0.988 | > 20 | 0.967 | > 10 | 0.921 | > 2.56 | 0.761 | 1.64 |
| SNU-C1 (large intestine, suspension) | 0.6 | 1.34 | 0.544 | 0.00874 | 0.655 | 0.249 | 0.973 | > 32 | 0.962 | > 30 | 0.973 | > 20 | 0.363 | 0.218 | 0.948 | > 2.56 | 0.903 | > 5.12 |
| EW-1 (Ewing sarcoma, semi-adherent) | 0.663 | 1.7 | 0.353 | 0.00254 | 0.219 | 0.0123 | 0.702 | 6.99 | 0.988 | > 30 | 0.82 | 10.3 | 0.938 | > 10 | 0.821 | 1.33 | 0.601 | 0.593 |
